Among all 46,000 compounds or so, about 60 (0.1%) were called active. Inconclusive results (about 3%) are left out. The call rests on the fitted dose curve; in most records, active means well fitted inhibition curve with a large enough effect; inconclusive means small, poorly fitted or top-dose-only effect; inactive means no such curve, though single readings can be large or run the other way. This is one part of the list.
Test: Primary qHTS assay for Inhibitors of ovarian cancer metastasis using an organotypic tumor microenvironment (TME) model. Further: nearly all actives have a fitted effect of over 65% in size.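 On activity change, negative = inhibition: plate controls were DMSO wells for no effect and tomatine positive control wells for full effect.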
Settings: SKOV3ip1-GFP adhesion/invasion on 3D omental model, fluorescence; series mostly up to 45.8 µM; activity change, negative = inhibition: at the top concentration
How it was run: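 Primary human omental fibroblast/mesothelial 3D culture pre-formed 48 h. SKOV3ip1-GFP cells added with compounds (0.36-46 umol/L), incubated 2 h RT/16 h 37 C, fixed; GFP cells quantified at 488/509 nm.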

Which “activity change, negative = inhibition” value does the source give for `CCOC(=O)c1sc(NC(=O)c2nc(SC)ncc2Cl)c(C(=O)OCC)c1C` here?
Its value is inactive: -2.82%.

Which “activity change, negative = inhibition” value does the source give for `COc1ccc(-n2c(-c3ccc(Cl)cc3)cc3c2CC(C)(C)CC3=O)c(OC)c1` here?
Its value is inactive: -10.5%.

Which “activity change, negative = inhibition” value does the source give for `CC1=C(C(=O)Nc2ccc(C)cc2C)C(c2ccc(C(C)C)cc2)n2nc(C(F)(F)F)nc2N1` (configuration not stated) here?
The value was inactive: -2.83%.

For `CCOc1ccc(CNCCNC(=O)c2nonc2N)cc1`, which “outcome” value is on record?
Its value is “inactive”.

For `CC(C)c1ccc(NS(=O)(=O)c2ccc3[nH]cc(C(=O)NC4CCCCC4)c(=O)c3c2)cc1`, which “activity change, negative = inhibition” value is on record?
The value was inactive: -20.2%.

For `Cc1cccc(OCCn2nnc3sc4c(c3c2=O)CCCC4)c1`, which “activity change, negative = inhibition” value is on record?
The value was inactive: 2.23%.

With `COc1ccc(-c2nc3ccccc3s2)cc1NC(=O)c1ccccc1OC` as the molecule, how does the “activity change, negative = inhibition” value read?
The value was inactive: 4.22%.

For `CNC(=O)c1c(NC(=O)c2cc(=O)c3ccccc3o2)sc2c1CCC2`, which “activity change, negative = inhibition” value is on record?
The value was inactive: 15.7%.

For `COc1ccc(CNC(=O)Cc2c(C)c3ccc(O)cc3oc2=O)cc1`, which “activity change, negative = inhibition” value is on record?
Its value is inactive: 1.57%.

For `Cc1cccc(NC(=O)c2sc3cccc(Cl)c3c2Cl)c1`, which “activity change, negative = inhibition” value is on record?
Its value is inactive: -0.239%.

For `Cc1cccc(C)c1NC(=O)c1ccc2nc(CCc3ccccc3)oc2c1`, which “activity change, negative = inhibition” value is on record?
The value was inactive: 2.28%.

For `CC1=C(C(=O)Nc2ccccc2)C(c2ccncc2)n2nc(SCc3ccccc3)nc2N1` (configuration not stated), which “outcome” value is on record?
The value was “inactive”.

With `CC(C)c1ccc(NC(=O)CCS(=O)(=O)c2ccc(Br)s2)cc1` as the molecule, how does the “outcome” value read?
Its value is “inactive”.

For `COCCCNC(=O)c1c(C)nn(-c2ccc(F)cc2)c1-n1cccc1`, which “activity change, negative = inhibition” value is on record?
Its value is inactive: -10%.

Which “activity change, negative = inhibition” value does the source give for `Cc1c(C(=O)Nc2ccc(F)cc2F)nnn1-c1ccccc1Br` here?
The value was inactive: 10.3%.

For `COc1ccc(CCNC(=O)c2ccc3c(c2)nc2n3CCOC2)cc1OC`, which “activity change, negative = inhibition” value is on record?
Its value is inactive: 10.7%.

For `COc1cccc(-c2nc(S(=O)(=O)c3ccccc3)c(NCc3ccccc3)o2)c1`, which “activity change, negative = inhibition” value is on record?
The value was inactive: -3.82%.

Which “activity change, negative = inhibition” value does the source give for `Cn1c(=O)c2sccc2n2c(CCCC(=O)Nc3ccc(F)c(F)c3)nnc12` here?
Its value is inactive: 0.0887%.

Which “activity change, negative = inhibition” value does the source give for `COc1cccc(-c2cc(C(F)(F)F)nc(NCc3ccc(F)cc3)n2)c1` here?
The value was inactive: -23.4%.

For `O=C(NCCCO)C(=O)Nc1c2c(nn1-c1ccc(F)cc1)CSC2`, which “activity change, negative = inhibition” value is on record?
The value was inactive: 10.9%.

For `Cc1nnc(N2CCC(C(=O)NCc3ccc(N(C)C)cc3)CC2)c2nn(-c3ccccc3)c(C)c12`, which “activity change, negative = inhibition” value is on record?
Its value is inactive: 0.731%.

Which “outcome” value does the source give for `COc1ccc(NC(=O)C2=C(C)Nc3nc(SC)nn3C2c2cc(OC)ccc2OC)cc1` (configuration not stated) here?
Its value is “inactive”.

Which “activity change, negative = inhibition” value does the source give for `Cc1ccc(C(=O)COC(=O)C(Cc2c[nH]c3ccccc23)NC(=O)c2ccc(Br)cc2)cc1` (configuration not stated) here?
The value was inactive: 6.89%.

With `CCc1nn(CC(=O)NCc2cccc(OC)c2OC)c(=O)c2cc3occc3n12` as the molecule, how does the “outcome” value read?
The value was “inactive”.

With `CCOc1ccccc1CNC(=O)CC(C)n1ccc(C)n1` (configuration not stated) as the molecule, how does the “activity change, negative = inhibition” value read?
Its value is inactive: -0.799%.

Which “activity change, negative = inhibition” value does the source give for `CN(CC(=O)Nc1cccc(C#N)c1)S(=O)(=O)c1cc2c(cc1Cl)NC(=O)CO2` here?
Its value is inactive: -4.1%.

With `COc1ccc(OC)c(CNC(=O)Cn2nc(C)c3c(C)n(-c4ccccc4)nc3c2=O)c1` as the molecule, how does the “activity change, negative = inhibition” value read?
Its value is inactive: 12.8%.

Which “outcome” value does the source give for `O=C(Nc1ccc(Cl)cc1)c1ccc2c(c1)N(Cc1ccccc1)C(=O)c1ccccc1S2(=O)=O` here?
The value was “inactive”.

For `Cc1cc2oc(C(=O)Nc3cccc(-c4nc5ccccc5o4)c3)c(C)c2cc1Cl`, which “activity change, negative = inhibition” value is on record?
Its value is inactive: -2.13%.

With `O=C(CSc1nc2ccccc2n1Cc1cccc(Cl)c1)N1CCN(c2ccc(F)cc2)CC1` as the molecule, how does the “activity change, negative = inhibition” value read?
Its value is inactive: -17.4%.

Which “outcome” value does the source give for `CCN(CC)c1ccc(NC(=O)CN2CCN(CC(=O)Nc3ccccc3OC)CC2)cc1` here?
Its value is “inactive”.

For `COc1ccccc1CNC(=O)c1ccc(CN2CC(=O)N3CCCCC3C2=O)cc1` (configuration not stated), which “activity change, negative = inhibition” value is on record?
Its value is inactive: 5.68%.

With `Cc1ccc(C)c(NC(=O)N2CCC(N3CCN(Cc4ccc(F)cc4)C(=O)C3=O)CC2)c1` as the molecule, how does the “activity change, negative = inhibition” value read?
Its value is inactive: 4.28%.

With `COc1ccccc1C(=O)NCC1(N2CCN(C)CC2)CCCCC1` as the molecule, how does the “activity change, negative = inhibition” value read?
The value was inactive: 0.229%.

With `COCCCNC(=O)C1CCCN(S(=O)(=O)c2ccc3c(c2)oc(=O)n3C)C1` (configuration not stated) as the molecule, how does the “activity change, negative = inhibition” value read?
The value was inactive: 5.85%.

For `CCOC(=O)c1cccc(NC(=O)CCn2nc(C)c3c(C)n(-c4ccccc4)nc3c2=O)c1`, which “activity change, negative = inhibition” value is on record?
The value was inactive: 0.713%.

With `CC1=Nc2cc(C(=O)NC3CCCC3)ccc2Sc2ccc(Br)cc21` as the molecule, how does the “activity change, negative = inhibition” value read?
The value was inactive: 25%.

For `Cc1cc2c(cc1S(=O)(=O)N(C)CC(=O)Nc1cccc(C#N)c1)OCC(=O)N2`, which “activity change, negative = inhibition” value is on record?
Its value is inactive: -8.76%.

For `CCOC(=O)N1CCc2c(sc3c2c(=O)n(-c2ccc(Cl)cc2)c(=O)n3Cc2cccc(C)c2)C1`, which “activity change, negative = inhibition” value is on record?
Its value is inactive: -7.62%.

For `Cn1c(=O)oc2cc(S(=O)(=O)N3CCCC(C(=O)N4CCN(c5ccccc5F)CC4)C3)ccc21` (configuration not stated), which “activity change, negative = inhibition” value is on record?
The value was inactive: 9.23%.

With `CCOCCCNC(=O)c1c[nH]c2ccc(S(=O)(=O)Nc3cccc(Cl)c3C)cc2c1=O` as the molecule, how does the “activity change, negative = inhibition” value read?
Its value is inactive: 2.11%.

With `Cc1ccccc1Nc1cc(C(=O)NC2CCCCC2)c2ccccc2n1` as the molecule, how does the “activity change, negative = inhibition” value read?
Its value is inactive: 1.79%.

For `Fc1ccc(Nc2ncnc3c2nc2n3CCCC2)cc1`, which “activity change, negative = inhibition” value is on record?
The value was inactive: 14.5%.

Which “activity change, negative = inhibition” value does the source give for `Cc1c(NC(=O)c2ccccc2)cc(C(C)C)c(O)c1S(=O)(=O)c1ccc(Cl)cc1` here?
The value was inactive: -5.47%.

For `CCOCCCn1c(SCC(=O)NCCCOC)nc2c(sc3ccccc32)c1=O`, which “activity change, negative = inhibition” value is on record?
The value was inactive: -14.6%.

For `Cc1ccc(CCNc2ncnc3onc(C)c23)cc1`, which “activity change, negative = inhibition” value is on record?
Its value is inactive: -7.31%.

With `O=C(NCCS(=O)(=O)N1CCN(c2ccc(F)cc2)CC1)c1cc(=O)c2ccccc2o1` as the molecule, how does the “outcome” value read?
Its value is “inactive”.

For `COc1ccccc1N1CCN(S(=O)(=O)c2cc3[nH]c(=O)c(=O)[nH]c3cc2C)CC1`, which “activity change, negative = inhibition” value is on record?
The value was inactive: 0.498%.

With `CCOc1ccc(CNC(=O)CCC(=O)N2CCSc3ccccc32)cc1` as the molecule, how does the “activity change, negative = inhibition” value read?
Its value is inactive: 2.52%.

For `Cc1ccc2occ(CC(=O)N(Cc3ccc(N(C)C)cc3)C3CCS(=O)(=O)C3)c2c1` (configuration not stated), which “activity change, negative = inhibition” value is on record?
The value was inactive: -24.3%.

With `CCN(CC)C(=O)C1CCCN(c2ncnc3onc(C)c23)C1` (configuration not stated) as the molecule, how does the “activity change, negative = inhibition” value read?
The value was inactive: 0.974%.

For `Cc1ccc(Cl)cc1N(C)C(=O)c1cnc(N2CCOCC2)c2ccccc12`, which “activity change, negative = inhibition” value is on record?
Its value is inactive: -1.82%.

Which “outcome” value does the source give for `COc1ccc(N2CCN(C(=O)c3ccc4nc(N5CCC(C)CC5)sc4c3)CC2)cc1` here?
Its value is “inactive”.

Which “activity change, negative = inhibition” value does the source give for `CCc1cccc(NC(=O)CN2CCCN(Cc3cccc(C)c3)S2(=O)=O)c1` here?
The value was inactive: 3.64%.

Which “outcome” value does the source give for `COC(=O)c1cc2oc3ccccc3c2n1Cc1c(F)cccc1Cl` here?
The value was “inactive”.

For `COc1ccc(NC(=O)N2CCc3c([nH]c4ccc(OC)cc34)C2c2ccc(OC)cc2)cc1` (configuration not stated), which “activity change, negative = inhibition” value is on record?
Its value is inactive: -11.5%.

With `COc1ccc2nc(N3CCN(C(=O)C4CC4)CC3)sc2c1` as the molecule, how does the “activity change, negative = inhibition” value read?
Its value is inactive: -0.0512%.

Which “activity change, negative = inhibition” value does the source give for `CC(NC(=O)c1sc2ncccc2c1-n1cccc1)c1ccccc1` (configuration not stated) here?
Its value is inactive: -19.8%.

Which “activity change, negative = inhibition” value does the source give for `COc1cccc(-c2nc3c(C#N)c[nH]n3c2NC2CCCCC2)c1OC` here?
Its value is inactive: -12.6%.

Which “activity change, negative = inhibition” value does the source give for `COc1cc(Nc2c(C#N)cnc3cc(OCCCN4CCN(C)CC4)c(OC)cc23)c(Cl)cc1Cl` here?
Its value is inactive: 7.29%.

Which “activity change, negative = inhibition” value does the source give for `Cc1ccc(Cn2c(=O)n(CC3CCC(C(=O)N4CCOCC4)CC3)c(=O)c3sccc32)cc1` (configuration not stated) here?
Its value is inactive: -8.52%.

For `O=C(NCC(c1cccnc1)N1CCN(Cc2ccccc2)CC1)C(=O)Nc1cccc(F)c1` (configuration not stated), which “activity change, negative = inhibition” value is on record?
Its value is inactive: -3.56%.

Source: PubChem BioAssay AID1963576 (National Center for Advancing Translational Sciences (NCATS), 2024)
